Out of some 150,000 compounds screened, about 540 (0.36%) showed an effect of 50% or more. The list shows a part of the results.

The test system of the test is Plasmodium falciparum. Description: Primary screen in NF54 nanoGlo assay, in single point, at 2uM, 72h; a lower Z score goes with more inhibition. Type of test: functional, Erythrocyte. To be noted: timepoint 72 hour.
Regarding `CCn1c(=O)c(-c2nc(-c3ccc(OC)c(F)c3)no2)c(O)c2ccccc21`, the “% Inhibition” value is -3% and the Z score came to 0.36.

As to `COc1ccc(CC(=O)N2C3CCC2Cn2c(n[nH]c2=O)C3)cc1` (stereo not given), the “% Inhibition” value is given as -3% and the Z score worked out at 0.41.

`CC(=O)Nc1cc(NC(C)=O)c(C)cc1C`: the “% Inhibition” value is -15% and the Z score is reported as 2.33.

For `CCCn1nccc1NC(=O)CN1C[C@]2(C)COC[C@]2(C)C1`, the “% Inhibition” value is given as -15% and the Z score was 1.62.

Take `O=C(CN1C(=O)N[C@]2(CCc3cc(Cl)ccc32)C1=O)c1ccc2c(c1)OCO2`: the “% Inhibition” value is on record as 0% and the Z score is -0.01.

Regarding `C[C@@](CO)(CCF)NC(=O)c1cccnn1`, the “% Inhibition” value is given as -7% and the Z score is 1.33.

Consider `CCc1nccn1[C@H]1CCCN(c2ncnc3[nH]ccc23)C1`, for which the “% Inhibition” value is on record as -9% and the Z score is 1.66.

Regarding `N#CCN(CC#N)C(=O)c1ccc2c(Br)cccc2c1`, the “% Inhibition” value is given as 1% and the Z score is reported as -0.2.

With `Cn1ccnc1COc1ccc(C(=O)Nc2nc3cc4c(cc3s2)OCCO4)cc1`, the “% Inhibition” value was 7% and the Z score is -0.95.

For the compound `O=c1ccccn1Cc1nc([C@H]2CCOC2)no1`, the “% Inhibition” value is -7% and the Z score is on record as 1.17.

With `COc1ccccc1N1CCN(CCNC(=O)c2cnoc2C)CC1`, the “% Inhibition” value was -6% and the Z score came out at 1.13.

As for `C[C@@H]1CN(Cc2cc3n(n2)CCN(c2ncc(F)cn2)C3)C[C@H](C)O1`, the “% Inhibition” value came to 1% and the Z score is reported as -0.08.

On to `O=C(NCCCNc1ccccc1)C(=O)Nc1ccn(Cc2cccnc2)n1`, for which the “% Inhibition” value is listed as -14% and the Z score amounted to 1.86.

In the case of `CC(=O)Nc1ccn2ncc(C(=O)Nc3cccc(-c4csc(C)n4)c3)c2c1`, the “% Inhibition” value came to 3% and the Z score is -0.62.

`O=C1[C@@H]2CCCN2C(=O)N1Cc1ccc(Cl)cc1`: the “% Inhibition” value is recorded as -8% and the Z score is listed as 0.81.

Consider `O=C(C(c1ccccc1)c1ccccc1)N1C[C@H](O)[C@@H](F)C1`, for which the “% Inhibition” value is -9% and the Z score is reported as 1.28.

Turning to `CN(Cc1ccco1)c1nc(N)nc2ccc(C(=O)O)cc12`, the “% Inhibition” value is -15% and the Z score came out at 1.36.

With `CC1(C)CN(C(=O)c2ccc(F)cc2F)CC[S@+]1[O-]`, the “% Inhibition” value is recorded as -10% and the Z score was 1.37.

For the compound `COCC1(CNC(=O)CCCN2CCOCC2)CCCC1`, the “% Inhibition” value is recorded as -7% and the Z score stood at 0.85.

Take `Cc1cc(C)nc(CN(C)C[C@H](O)C2CC2)c1`: the “% Inhibition” value is recorded as -10% and the Z score is on record as 1.2.

As for `CCN1CC[C@@]2(CCC1=O)CN(Cc1cscn1)CCN2C`, the “% Inhibition” value is recorded as -2% and the Z score was found to be 0.42.

Consider `CCc1noc(C)c1C(=O)N[C@H](c1cnc2ccccc2c1)C1CC(O)C1` (stereo not given in full), for which the “% Inhibition” value was -26% and the Z score was 3.38.

Consider `Cc1nc2[nH]n(C)c(=O)c2c(C)c1CCC(=O)NC1CCCCC1C` (stereo not given), for which the “% Inhibition” value is -8% and the Z score was 1.04.

Consider `Cc1ccc(NC2CCN(C(=O)c3cn4ccc(C)cc4n3)CC2)cc1`, for which the “% Inhibition” value amounted to 6% and the Z score is recorded as -0.73.

On to `CNS(=O)(=O)Cc1noc([C@@H]2CCCN2Cc2ccccc2)n1`, for which the “% Inhibition” value is -10% and the Z score is 1.99.

On to `CC(=O)N(c1nc(C)c(C(=O)Nc2nc3ccccc3s2)s1)C(C)C`, for which the “% Inhibition” value is on record as 5% and the Z score is on record as -0.81.

As to `Cc1cc(S(=O)(=O)N2CCCO2)c(C)s1`, the “% Inhibition” value is -8% and the Z score was 1.26.

As to `Cc1ccc2nc(-c3ccc(N4CCOCC4)cc3)c(Nc3ccc4c(c3)OCCO4)n2c1`, the “% Inhibition” value is -1% and the Z score was 0.16.

For `CC(C)(C)OC(=O)N[C@H]1CCc2ncc(N)cc2C1`, the “% Inhibition” value was -3% and the Z score is given as 0.31.

Take `CC1CN(S(=O)(=O)c2ccccc2)C(C)N1C(=O)N1CCOCC1` (stereo not given): the “% Inhibition” value came out at 11% and the Z score is recorded as -1.4.

As for `COc1cc([C@@H](c2c(-c3ccccc3)nn(-c3ccc(C)cc3)c2O)c2c(-c3ccccc3)[nH]n(-c3ccc(C)cc3)c2=O)ccc1O`, the “% Inhibition” value is 11% and the Z score is listed as -1.62.

Turning to `COc1cccc(OCc2nc(C(=O)NCc3ccon3)co2)c1`, the “% Inhibition” value is given as 6% and the Z score is listed as -1.17.

Regarding `OCc1ccc(-c2cn([C@H]3CCCN(c4ncccn4)C3)nn2)o1`, the “% Inhibition” value is reported as -5% and the Z score came out at 0.47.

Take `COc1ccc2ccccc2c1C1=NN(C(C)=O)[C@H](c2ccc(-c3ccccc3)cc2)O1`: the “% Inhibition” value is recorded as 4% and the Z score is -0.49.

As to `Cc1nc(N2CCOCC2)ccc1NC(=O)N1CC[C@@H](C(F)(F)F)C1(C)C`, the “% Inhibition” value was -9% and the Z score is 1.48.

For the compound `CCc1ccc(CN2C[C@H]3CC[C@@H](C2)[C@H]3N(C)C)o1`, the “% Inhibition” value is -10% and the Z score is reported as 1.66.

As to `Cc1nc([C@H]2CCN(c3ncnc4scc(C)c34)C2)n[nH]1`, the “% Inhibition” value is reported as -11% and the Z score is reported as 1.41.

As for `CN(Cc1ncnn1C)C(=O)c1c[nH]nc1-c1ccccc1`, the “% Inhibition” value is given as -9% and the Z score was found to be 1.58.

As for `Cc1ccc(NC(=O)N(C)CCN(C)C2CCCC2)cc1F`, the “% Inhibition” value is reported as -4% and the Z score is on record as 0.6.

Turning to `Cc1ncc(CNCCn2cc(Br)cn2)c(C)n1`, the “% Inhibition” value is given as -8% and the Z score is given as 1.17.

On to `Cc1cc(NC(=O)CCN2CCN(S(=O)(=O)c3cccc(F)c3)CC2)no1`, for which the “% Inhibition” value was -13% and the Z score worked out at 1.18.

Regarding `CC(C)CCNC(=O)N1CCC[C@](C)(c2noc(-c3ccncc3)n2)C1`, the “% Inhibition” value was -13% and the Z score stood at 2.07.

`CCc1nc(C)sc1CN1C(=O)COc2cccnc21`: the “% Inhibition” value is reported as -15% and the Z score came to 2.17.

As for `C[C@H]1CCCN(C(=O)c2cc3ccccc3c(=O)[nH]2)CC1`, the “% Inhibition” value is -10% and the Z score was determined as 1.5.

In the case of `CC(C)c1nnc2sc([C@H]3CC34CCC4)nn12`, the “% Inhibition” value is on record as -18% and the Z score is 2.42.

Take `CCOC1CN(C(=O)c2cc(S(N)(=O)=O)ccc2Cl)C1`: the “% Inhibition” value is listed as -1% and the Z score was determined as 0.24.

Take `COC(=O)C1CC(O)CN1Cc1ncc(Cl)cc1Cl` (stereo not given): the “% Inhibition” value was -16% and the Z score was determined as 2.17.

As to `CN1CCCN(C(=O)[C@H]2CC23CCN(Cc2cccn2-c2ccc(Cl)cn2)CC3)CC1`, the “% Inhibition” value came out at 0% and the Z score is 0.06.

Take `COC(=O)c1cc2ccc(-c3cccc(C(=O)NC[C@@H]4CCCN4)c3)cc2[nH]1`: the “% Inhibition” value is on record as 5% and the Z score is recorded as -0.59.

For `Cc1nc(-c2n[nH]c3ccccc23)n(CCO)n1`, the “% Inhibition” value is listed as -4% and the Z score was 0.74.

With `CC(C)(C)CC(=O)NC[C@@H](c1ccsc1)n1cccn1`, the “% Inhibition” value was -5% and the Z score was 1.09.

With `CN(CCC1CCCCC1)S(C)(=O)=O`, the “% Inhibition” value was 5% and the Z score is recorded as -0.59.

For the compound `CCC1(CC)C(=O)N(C)C(=O)N=C1N(C)C`, the “% Inhibition” value was -1% and the Z score stood at 0.16.

On to `O=C(N[C@H]1CCCc2[nH]ccc21)c1cc(F)c(F)c(O)c1F`, for which the “% Inhibition” value is given as 5% and the Z score is -0.82.

For `CNC(=O)CCC(C)(C)NC(=O)CCc1cccc(O)c1`, the “% Inhibition” value is reported as -10% and the Z score was 1.45.

What is called % Inhibition is the drop in the measured response relative to a control, in per cent.

The values above are taken from ChEMBL document CHEMBL4888484, “Replenishing the malaria drug discovery pipeline: Screening and hit evaluation of the MMV Hit Generation Library 1 (HGL1) against asexual blood stage Plasmodium falciparum ,using a nano luciferase reporter read-out” (2022).
